Measured values: ChEMBL document CHEMBL1201862, “PubChem BioAssay data set” (2004)
Active and inactive are the calls of the source. No stated cut-off is given here; in the data, actives have a measured IC50 and inactives only a lower limit.

How the values were obtained:
Assay type in all cases: functional
[1] = biological target: T1, Sentrin-specific protease 6 (Homo sapiens, UniProt Q9GZR1);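 further: Luminescence-based dose-response confirmatory assay of SENP6 inhibition, following up an ultra-high-throughput screen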
T1 sequence (Q9GZR1 whole entry): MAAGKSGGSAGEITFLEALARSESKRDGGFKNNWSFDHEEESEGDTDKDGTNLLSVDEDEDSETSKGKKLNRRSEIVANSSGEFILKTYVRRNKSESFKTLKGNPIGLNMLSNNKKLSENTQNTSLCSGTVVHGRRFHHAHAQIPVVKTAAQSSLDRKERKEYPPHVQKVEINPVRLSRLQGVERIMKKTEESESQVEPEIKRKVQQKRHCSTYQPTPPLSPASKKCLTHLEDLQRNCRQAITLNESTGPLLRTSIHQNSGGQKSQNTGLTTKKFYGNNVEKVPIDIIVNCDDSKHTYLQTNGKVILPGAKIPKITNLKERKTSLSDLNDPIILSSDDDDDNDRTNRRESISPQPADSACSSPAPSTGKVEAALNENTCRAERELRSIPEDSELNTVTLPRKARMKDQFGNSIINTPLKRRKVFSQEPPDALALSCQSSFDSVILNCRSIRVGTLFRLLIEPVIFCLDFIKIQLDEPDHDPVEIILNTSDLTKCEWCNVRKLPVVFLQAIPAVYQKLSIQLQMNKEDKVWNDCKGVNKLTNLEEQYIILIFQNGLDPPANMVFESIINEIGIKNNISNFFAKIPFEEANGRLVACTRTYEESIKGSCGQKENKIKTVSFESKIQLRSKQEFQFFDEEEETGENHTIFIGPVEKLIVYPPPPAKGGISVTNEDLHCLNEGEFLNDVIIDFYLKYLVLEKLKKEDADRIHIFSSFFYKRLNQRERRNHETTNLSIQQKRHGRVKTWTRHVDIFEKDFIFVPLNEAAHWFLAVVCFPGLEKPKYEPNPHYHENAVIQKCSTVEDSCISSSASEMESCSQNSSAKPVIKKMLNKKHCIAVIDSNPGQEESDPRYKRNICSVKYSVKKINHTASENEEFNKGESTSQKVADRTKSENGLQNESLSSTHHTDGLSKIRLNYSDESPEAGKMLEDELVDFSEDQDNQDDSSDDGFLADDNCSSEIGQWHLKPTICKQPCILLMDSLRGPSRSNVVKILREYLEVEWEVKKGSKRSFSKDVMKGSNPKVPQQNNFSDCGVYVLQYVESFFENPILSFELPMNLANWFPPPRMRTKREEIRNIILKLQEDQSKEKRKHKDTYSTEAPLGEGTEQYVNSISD

[2] = biological target: T2, Sentrin-specific protease 8 (Homo sapiens, UniProt Q96LD8);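 further: luminescence read-out of SENP8 inhibition, dose-response confirmation following an ultra-high-throughput screen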
T2 sequence (Q96LD8 whole entry): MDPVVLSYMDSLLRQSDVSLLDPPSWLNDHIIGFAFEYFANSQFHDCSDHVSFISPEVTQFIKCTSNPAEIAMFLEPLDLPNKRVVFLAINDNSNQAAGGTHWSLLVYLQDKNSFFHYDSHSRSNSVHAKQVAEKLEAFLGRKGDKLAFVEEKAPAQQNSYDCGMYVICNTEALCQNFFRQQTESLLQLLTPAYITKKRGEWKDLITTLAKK

[3] = biological target: T3, Caspase-3 (Homo sapiens, UniProt P42574);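 further: Dose-response selectivity test against caspase-3 for candidate inhibitors of sentrin-specific proteases (SENPs)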
T3 sequence (P42574 whole entry): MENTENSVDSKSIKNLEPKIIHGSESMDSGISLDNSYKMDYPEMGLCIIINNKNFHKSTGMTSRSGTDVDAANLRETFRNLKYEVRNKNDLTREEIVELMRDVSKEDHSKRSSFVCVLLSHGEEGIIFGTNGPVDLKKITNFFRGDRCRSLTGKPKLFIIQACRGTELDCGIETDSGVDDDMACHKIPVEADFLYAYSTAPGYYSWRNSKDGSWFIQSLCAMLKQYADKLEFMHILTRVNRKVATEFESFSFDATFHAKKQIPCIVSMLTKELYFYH

[4] = biological target: T4, Sentrin-specific protease 7 (Homo sapiens, UniProt Q9BQF6);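 further: Luminescence-based dose-response confirmation of ultra-high-throughput screening hits, measuring inhibition of SENP7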
T4 sequence (Q9BQF6 whole entry): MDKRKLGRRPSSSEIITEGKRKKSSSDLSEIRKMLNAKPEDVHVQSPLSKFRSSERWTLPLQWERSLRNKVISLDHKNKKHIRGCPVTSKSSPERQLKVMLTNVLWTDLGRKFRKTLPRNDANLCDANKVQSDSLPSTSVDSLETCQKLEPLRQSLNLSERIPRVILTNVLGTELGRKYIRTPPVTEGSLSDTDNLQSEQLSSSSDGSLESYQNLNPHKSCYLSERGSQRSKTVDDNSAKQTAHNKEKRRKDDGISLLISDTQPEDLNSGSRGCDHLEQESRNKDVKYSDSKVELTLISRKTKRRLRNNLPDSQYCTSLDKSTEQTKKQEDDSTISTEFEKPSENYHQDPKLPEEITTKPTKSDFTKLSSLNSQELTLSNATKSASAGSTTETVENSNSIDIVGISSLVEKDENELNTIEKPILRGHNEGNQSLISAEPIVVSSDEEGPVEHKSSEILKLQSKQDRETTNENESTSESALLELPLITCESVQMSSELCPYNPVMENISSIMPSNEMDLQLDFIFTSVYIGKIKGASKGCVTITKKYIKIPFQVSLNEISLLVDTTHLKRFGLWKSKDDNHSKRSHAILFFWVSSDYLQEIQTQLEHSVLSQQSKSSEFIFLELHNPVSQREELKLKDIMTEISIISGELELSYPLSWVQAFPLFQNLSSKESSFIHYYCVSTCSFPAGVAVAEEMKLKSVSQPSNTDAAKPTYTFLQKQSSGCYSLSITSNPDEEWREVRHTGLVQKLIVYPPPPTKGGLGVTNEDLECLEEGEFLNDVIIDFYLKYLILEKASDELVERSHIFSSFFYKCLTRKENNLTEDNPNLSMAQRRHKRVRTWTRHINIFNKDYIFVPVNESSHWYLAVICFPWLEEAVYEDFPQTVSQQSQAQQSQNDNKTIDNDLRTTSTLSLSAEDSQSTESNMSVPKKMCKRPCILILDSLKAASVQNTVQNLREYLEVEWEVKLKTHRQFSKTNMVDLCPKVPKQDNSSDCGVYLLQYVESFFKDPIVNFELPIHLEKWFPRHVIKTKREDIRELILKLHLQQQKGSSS

Measured: IC50

Cc1cc(=O)oc2cc(OCc3ccccc3)ccc12
active: [1] 24.1 µM | [2] 21 µM | [3] 16.5 µM | [4] 7.26 µM
